Laboratory results: PubChem BioAssay AID493208 (National Center for Advancing Translational Sciences (NCATS), 2011)
About 340 (0.77%) of roughly 44,000 compounds were called active. The shares of active, inactive and inconclusive entries below differ from those in the screen. Calls follow the shape of the dose curve; as a rule, active = well fitted inhibition curve with a large enough effect; inconclusive = small, poorly fitted or top-dose-only effect; inactive = flat fitted curve, though single readings scatter. No potency is given beside an inconclusive call; the fits are too rough.

Assay: Acumen qHTS Assay for Inhibitors of the mTORC1 Signaling Pathway in MEF (Tsc2-/-, p53-/-) Cells: Sytravon; also: nearly all actives have a fitted effect of over 50% in size
Details: phospho-rpS6 immunofluorescence/PI, 24 h; series mostly up to 38.3 µM
Summary of the method: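 Plate MEFs (Tsc2-/-, p53-/-, empty vector) in DMEM/10% FBS; after 24 h add compound, incubate 24 h at 37 degree Celsius; fix in PFA/TX-100, block, stain phospho-rpS6 and 10 uM PI; scan at 488 nm; report % positive cells.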
Potency is read from the fitted curve at half-maximal effect; tags tell the direction and shape of the fitted curve.

Row | SMILES | Potency
1 | COc1ccc(/C=C/c2nc(C#N)c(NC3CCCCC3)o2)cc1OC | inconclusive [falling, single point]
2 | Cc1ccc(CNC(=O)CCc2c(C)nn(-c3ccc(N4CCCC4)nn3)c2C)cc1 | inconclusive [falling, partial curve, poor fit]
3 | COc1ccccc1CNC(=O)Cn1c(-c2cccs2)cc2cc(F)ccc21 | inconclusive [falling, partial curve, poor fit]
4 | COc1ccc(Nc2nnc(-c3ccc(C)c(S(=O)(=O)N4CCN(C)CC4)c3)c3ccccc23)cc1 | inconclusive [falling, single point]
5 | CCOc1ccccc1C1CC(=O)NC(C)=C1C(=O)OCc1ccc(C)cc1 (configuration not stated) | inactive
6 | COc1cc2c(cc1OC)C(COc1ccc3c(C)cc(=O)oc3c1)N(C(=O)c1ccc(C)c(C)c1)CC2 (configuration not stated) | inconclusive [falling, full curve, poor fit]
7 | CCCN(Cc1cccs1)C(=O)Nc1ccccc1C | inconclusive [falling, partial curve, poor fit]
8 | CCn1c2ccccc2c2nnc(N3CCN(c4cccc(C)c4C)CC3)nc21 | inconclusive [falling, partial curve, poor fit]
9 | COc1ccc(-n2c(/C=C/c3cc(OC)c(OC)cc3OC)nc3cc4ccccc4cc3c2=O)cc1Cl | inconclusive [falling, partial curve, poor fit]
10 | CCc1cccc(C)c1NC(=O)Cn1c(=O)cc(C(F)(F)F)c2c(C)nn(C)c21 | inconclusive [falling, partial curve, poor fit]
11 | O=C(CSc1nc2c([nH]c3ccccc32)c(=O)n1-c1ccccc1)c1ccccc1 | inactive
12 | COc1ccc(-c2nn(CC(=O)Nc3ccccc3F)c3c2cnc2ccc(F)cc23)cc1 | inactive
13 | Cc1ccc(-c2nc(S(=O)(=O)c3ccc(C)cc3)c(N3CCN(c4ccccc4)CC3)o2)cc1 | inconclusive [falling, single point]
14 | CCOc1ccc(-n2nc3cc(C)c(NC(=O)CC)cc3n2)cc1 | inconclusive [falling, single point]
15 | CCOc1ccc(-c2cc(NC(=O)c3ccc(C)cc3)c(C(=O)OC)s2)cc1 | inconclusive [falling, single point]
16 | CCc1ccc(NC(=O)C(=O)NCC(c2cccnc2)N2CCN(C)CC2)cc1 (configuration not stated) | inconclusive [falling, single point]
17 | Cc1nn(CCCC(=O)NCCc2ccc(Cl)cc2)c(=O)c2c1sc1ccccc12 | inconclusive [falling, single point]
